Values joined by “and” are separate entries in the source; they are usually repeats but may differ in a detail not shown here. Equal values may be shown once. Where a name gives a salt, the structure may show the parent alone. ± gives the standard deviation of the averaged measurements. Whole data set: some 3,200 compounds, median “nuclei count (viability) relative to DMSO” near 99, cut for the lowest 2% near 16. Some of the results follow.
Test system: U2OS
Assay: nuclei count (viability) relative to DMSO (% of DMSO); higher = more viable cells
Conditions: 10 µM; 24 h
Description: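 Primary image-based screen in U2OS cells: compounds at 10 uM for 24 h, then a 1 h o-propargyl-puromycin (OPP) pulse, click labelling, and high-throughput microscopy. Mean cytoplasmic OPP intensity and nuclei count were normalised to DMSO wells within each plate (DMSO = 100) and averaged over triplicate plates.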

In order of rising nuclei count:
1. C=CC(=O)Nc1cccc(Oc2nc(Nc3ccc(N4CCN(C)CC4)cc3)ncc2Cl)c1  6.24
2. NC(=O)Nc1cc(-c2cccc(F)c2)sc1C(=O)N[C@H]1CCCNC1  7.62
3. CC(=O)OC[C@H]1O[C@@H]([S-])[C@H](OC(C)=O)[C@@H](OC(C)=O)[C@@H]1OC(C)=O.CCP(CC)CC.[Au+] [Auranofin]  13.4
4. C=CC(=O)Nc1cccc(Sc2nc(Nc3ccc(N4CCN(C)CC4)cc3)ncc2Cl)c1  13.6
5. COc1ccc(-c2nc(N3CCOCC3)c3sc(CN(C)c4ncc(C(=O)NO)cn4)cc3n2)cn1  18
6. COC(=O)Nc1nc2cc(Sc3ccccc3)ccc2[nH]1 [Fenbendazole]  24.1
7. CCCOc1ccc2[nH]c(NC(=O)OC)nc2c1 [Oxibendazol]  25.9
8. COC(=O)Nc1nc2cc(Sc3ccccc3)ccc2[nH]1 [Fenbendazole (Panacur)]  28.6
9. CCCOc1ccc2[nH]c(NC(=O)OC)nc2c1 [Oxibendazole]  35.5
10. c1ccc2c(CCNc3ccc(Nc4ccncc4)cc3)c[nH]c2c1  41.2
11. Cc1csc(-c2nnc(Nc3ccc(Oc4ncccc4-c4ccnc(N)n4)cc3)c3ccccc23)c1  48.1
12. COc1c(C)cnc(Cn2cnc3c(Cl)nc(N)nc32)c1C  49.7
13. COc1cc(Nc2c(C#N)cnc3cc(OCCCN4CCN(C)CC4)c(OC)cc23)c(Cl)cc1Cl [Bosutinib (SKI-606)]  59.3 ± 30
14. CCCCc1oc2ccc(NS(C)(=O)=O)cc2c1C(=O)c1ccc(OCCCN(CCCC)CCCC)cc1 [Dronedarone HCl (Multaq)]  59.4
15. C[C@H]1[C@H](C)CC[C@]2(C(=O)O)CC[C@]3(C)C(=CC[C@@H]4[C@@]5(C)CC[C@H](O)C(C)(C)[C@@H]5CC[C@]43C)[C@H]12 [Ursolic acid (Malol)]  80.6
16. NC[C@@H]1O[C@H](C23CC4CC(CC(C4)C2)C3)Cc2c1ccc(O)c2O  84.2
17. CC(=O)O[C@@H]1C[C@H]2C(C)(C)C(=O)C=C[C@]2(C)[C@H]2CC[C@@]3(C)[C@H](c4ccoc4)OC(=O)[C@H]4O[C@]43[C@@]21C [Gedunin]  85.6
18. O=c1[nH]cnc2nc[nH]c12 [Hypoxanthine]  86.9
19. CN(CCCCCCCCCCN(C)C(=O)Oc1cccc([N+](C)(C)C)c1)C(=O)Oc1cccc([N+](C)(C)C)c1 [Demecarium bromide]  87.2
20. NCCCCCC(=O)O [Aminocaproic acid]  88
21. N#C/C(=C\c1ccc(O)c(O)c1)C(=O)NCCCCc1ccccc1  88.3
22. Oc1c(Cl)cc(Cl)c2cccnc12 [Chloroxine]  88.9
23. O=C1NCC2(CCN(CCc3ccccc3)CC2)O1 [Fenspiride hydrochloride]  89.3
24. CCN(CC)c1ccc(/C=N/NC(=O)c2ccc(O)cc2)cc1  89.4
25. O=C(O)CCc1ccc(NCc2cccc(Oc3ccccc3)c2)cc1  90.2
26. Nc1nccc(Oc2ccc(NC(=O)c3c[nH]cc(-c4ccc(F)cc4)c3=O)cc2F)c1Cl  90.3 ± 8.4
27. C[C@@](Cc1ccc(O)c(O)c1)(NN)C(=O)O [Carbidopa]  90.5
28. CC(C)NC[C@@H](C(=O)N1CCN(c2ncnc3c2[C@H](C)C[C@H]3O)CC1)c1ccc(Cl)cc1 [Ipatasertib (GDC-0068)]  90.8
29. CO[C@H]1/C=C/O[C@@]2(C)Oc3c(C)c(O)c4c(O)c(c5c(nc6cc(C)ccn65)c4c3C2=O)NC(=O)/C(C)=C\C=C\[C@H](C)[C@H](O)[C@@H](C)[C@@H](O)[C@@H](C)[C@H](OC(C)=O)[C@@H]1C [Rifaximin]  91.4
30. Cc1ccc([C@@H]2O[C@H](CO)[C@@H](O)[C@H](O)[C@H]2O)cc1Cc1ccc(-c2ccc(F)cc2)s1 [Canagliflozin]  92.7
31. CC(C)NC[C@@H](C(=O)N1CCN(c2ncnc3c2[C@H](C)C[C@H]3O)CC1)c1ccc(Cl)cc1  92.8
32. COc1ccc2c(Oc3ccc(NC(=O)c4c(C)n(CC(C)(C)O)n(-c5ccccc5)c4=O)nc3)ccnc2c1  94.2 ± 11
33. CCN(CC)C(C)CN1c2ccccc2Sc2ccccc21 (centres undefined) [Ethopropazine hydrochloride]  94.3
34. CC1=C(C)C(=O)C(C(CCCCCC(=O)O)c2ccccc2)=C(C)C1=O (centres undefined) [Seratrodast]  94.6
35. COc1ccc(Cl)cc1NC(=O)Nc1cc(C)nc2ccccc12  94.7 ± 12
36. Clc1ccc2c(c1)CCc1cccnc1C2=C1CCNCC1 [Desloratadine]  95.3
37. O=C[C@@H]1CCCN1C(=O)[C@@H]1CCCN1C(=O)OCc1ccccc1 [Z-Prolyl-prolinal]  95.7
38. O=C1CC[C@@H](C(=O)N2CSC[C@H]2C(=O)O)N1 [Pidotimod]  96
39. O=C1NC(=O)c2cc(Nc3ccccc3)c(Nc3ccccc3)cc21  96.2
40. CC=CC(=O)N(CC)c1ccccc1C [Crotamiton]  97.6
41. CCC1(c2ccccc2)C(=O)NCNC1=O [Primidone]  98.55 ± 0.35
42. CCS(=O)(=O)N1CC(CC#N)(n2cc(-c3ncnc4[nH]ccc34)cn2)C1  99.7
43. CC(=O)O[C@]1(C(C)=O)CC[C@H]2[C@@H]3C=C(Cl)C4=CC(=O)CC[C@]4(C)[C@H]3CC[C@@]21C [Chlormadinone acetate]  100
44. Nc1ncnc2c1ncn2[C@@H]1O[C@H](CO)[C@@H](O)[C@@H]1O [Vidarabine]  100
45. CC(=O)N(CC(O)CO)c1c(I)c(C(=O)NCC(O)CO)c(I)c(C(=O)NCC(O)CO)c1I (centres undefined) [Iohexol]  100
46. Clc1cccc(Cl)c1NC1=NCCN1 [Clonidine hydrochloride]  101 ± 7.6
47. Cc1nc2c([nH]1)-c1ccccc1N(C(=O)c1ccc(NC(=O)c3ccccc3-c3ccccc3)cc1)CC2 [Conivaptan HCl (Vaprisol)]  101
48. CC1OC2(CS1)CN1CCC2CC1 (centres undefined) [Cevimeline hydrochloride]  101
49. CO[C@H]1/C=C/O[C@@]2(C)Oc3c(C)c(O)c4c(O)c(c5c(nc6cc(C)ccn65)c4c3C2=O)NC(=O)/C(C)=C\C=C\[C@H](C)[C@H](O)[C@@H](C)[C@@H](O)[C@@H](C)[C@H](OC(C)=O)[C@@H]1C [Rifaximin (Xifaxan)]  102
50. Cc1noc(NS(=O)(=O)c2cccc3c(N(C)C)cccc23)c1C  102
51. O=C(c1ccc(F)cc1)C1CCN(CCn2c(=O)[nH]c3ccccc3c2=O)CC1 [Ketanserin tartrate hydrate]  102
52. CCOc1nc2cccc(C(=O)O)c2n1Cc1ccc(-c2ccccc2-c2nnn[nH]2)cc1 [Candesartan]  102
53. CN(C)CCC(c1ccc(Br)cc1)c1ccccn1 (centres undefined) [Brompheniramine maleate]  102
54. CN(C)C(=N)NC(=N)N [Metformin hydrochloride]  103
55. CC(C)(C)c1cc(C(C)(C)C)c(NC(=O)c2c[nH]c3ccccc3c2=O)cc1O [Ivacaftor (VX-770)]  103
56. CN1CCN(CCc2ccc(Cl)c(Cl)c2)CC1 [BD 1063 dihydrochloride]  104
57. CCCc1cc(C)[nH]c(=O)c1CNC(=O)c1cc(-c2ccnc(N3CCN(C)CC3)c2)cc2c1cnn2C(C)C  104
58. CCCNC(=O)NS(=O)(=O)c1ccc(Cl)cc1 [Chlorpropamide]  106
59. CN(CCCN1c2ccccc2CCc2ccccc21)CC(=O)c1ccc(Cl)cc1 [Lofepramine]  107
60. CCOc1nc2cccc(C(=O)O)c2n1Cc1ccc(-c2ccccc2-c2nnn[nH]2)cc1 [Candesartan (Atacand)]  107
61. C[C@]12C=CC(=O)N[C@@H]1CC[C@@H]1[C@@H]2CC[C@]2(C)[C@@H](C(=O)Nc3cc(C(F)(F)F)ccc3C(F)(F)F)CC[C@@H]12 [Dutasteride]  108
62. CC(C)CCNC(=O)[C@H](CC(C)C)NC(=O)[C@H]1O[C@@H]1C(=O)O  108
63. CCN(CC)C(=O)c1ccc(O)c(OC)c1 [Ethamivan]  108
64. CN(C)CCOC(c1ccccc1)c1ccccc1.Cn1c(=O)c2[nH]c(Cl)nc2n(C)c1=O [Dimenhydrinate]  108
65. O=C(c1ccc(F)cc1)C1CCN(CCn2c(=O)[nH]c3ccccc3c2=O)CC1 [Ketanserin tartrate]  109
66. CC(=O)OCCN1C(=O)c2c(C)nc3ccc(S(=O)(=O)N4CCOCC4)cc3c2C1=O [Ivachtin]  110
67. CCCCCCCCCC(=O)N[C@@H](Cc1c[nH]c2ccccc12)C(=O)N[C@H](CC(N)=O)C(=O)N[C@@H](CC(=O)O)C(=O)N[C@@H]1C(=O)NCC(=O)N[C@@H](CCCN)C(=O)N[C@@H](CC(=O)O)C(=O)N[C@H](C)C(=O)N[C@@H](CC(=O)O)C(=O)NCC(=O)N[C@H](CO)C(=O)N[C@@H]([C@H](C)CC(=O)O)C(=O)N[C@@H](CC(=O)c2ccccc2N)C(=O)O[C@@H]1C [Daptomycin]  110
68. CCCCCCCCCCCCCCCC(=O)OC[C@H](O)[C@H]1OC(=O)C(O)=C1O [Ascorbyl palmitate]  111
69. Cc1cc2nc3c(=O)[nH]c(=O)nc-3n(C[C@H](O)[C@H](O)[C@H](O)CO)c2cc1C [Riboflavin (Vitamin B2)]  112
70. CNCCc1ccccn1 [Betahistine mesylate]  115
71. c1ccc(-c2ccc(C(c3ccccc3)n3ccnc3)cc2)cc1 (centres undefined) [Bifonazole]  117
72. Nc1nc2c(ncn2COC(CO)CO)c(=O)[nH]1 [Ganciclovir]  122

With Cc1cnc(Nc2ccc(OCCN3CCCC3)cc2)nc1Nc1cccc(S(=O)(=O)NC(C)(C)C)c1 the nuclei count was 7.48 and 5.57.
With CC1CCN(CC[C@H]2CCCN2S(=O)(=O)c2cccc(O)c2)CC1 the nuclei count was 99.6 and 103.

From the supplement of paper PMC8183993
